Laboratory results from the supplement of paper PMC11417369.
± gives the standard deviation of the averaged measurements. This is one part of the list.

Each sequence was assayed on PfAP2-G AP2 domain (GST-tagged) (assay: gcPBM binding intensity (ln(normalized median fluorescence intensity)); higher = stronger DNA binding).
Summary of the method: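 Binding intensity values are the highest Masliner-normalised natural-log median intensity among replicate spots of either probe orientation. The binding step lasted 1 h in 1× PBS with 1% milk, 0.2 mg/ml BSA, 0.5% salmon testes DNA and 0.03% Triton X-100, using GST-tagged P. falciparum DNA-binding domains expressed in E. coli on an Agilent 4 × 180k array of primer-extended double-stranded 36-bp intergenic genomic probes plus negative controls. Alexa488 anti-GST antibody and a 488 nm scan detected bound protein.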

| Sequence | gcPBM binding intensity (ln) |
| --- | --- |
| TGTTCAGTAGGGCACACACACAACAAAATAAAAAAA [CACACA_site378] | 10.6 ± 0.63 |
| GATGTGATGTATTTGGTATTTTTCGATGTTGGTAGG [CACACA_negctrl_site355] | 10.2 ± 0.2 |
| TATTATATATCAAAATGTACATTAATTTGAGTAATT [XGTACX_site5434] | 10.9 ± 0.55 |
| AAGACATTTTTTAAGGTGCTTTGGAAAAAGGAGTAT [GTGCAC_site9816] | 10.1 ± 0.11 |
| GAGATTTATTTATGTGCACACTAGAACAATTGGATC [CACACA_site2090] | 10.6 ± 0.2 |
| CTTTTTTCAAAACACACACACAAGAAAATATATATA [CACACA_site3109] | 10.3 ± 0.35 |
| TTTTTTTTTTTTGTGCGTACATACCATTTTAATAAT [XGTACX_site2760] | 11.6 ± 0.92 |
| AATGAGGATATATACACACATACATTAAAAAAATAT [CACACA_site1849] | 9.93 ± 0.014 |
| AAAAAAAAAAAAAAAAGGGGGGGAGGGATTGAAAAA [CACACA_negctrl_site193] | 11.3 ± 0.71 |
| ACAGTATTTCGAGATGGTACACATATATATATATAT [XGTACX_site6880] | 11.2 ± 0.81 |
| TGATAAATATGGAGCACACACACATAAACATACATA [CACACA_site420] | 10.3 ± 0.18 |
| TTTAAAAGATAAAACACACATACTAATAAAAAACAA [CACACA_site2556] | 10.03 ± 0.042 |
| TTGTATCCTTAATGCATGCACCAAATAACAAAAGTA | 10.2 ± 0.34 |
| TTGTTGTATTATTTATGTACATATGTATATGTATAT [XGTACX_site1315] | 11.3 ± 0.59 |
| ATGAGTTACATGGGAAAAATATATATATATATATAT [CACACA_negctrl_site579] | 10 ± 0.34 |
| ATTATAATTGCATATACACACAAAGGTTCATAACAA [CACACA_site7440] | 10.2 ± 0.2 |
| ACATATATAAAATAATGTACATTTTTAAGAATGCGT [XGTACX_site7654] | 11.1 ± 0.54 |
| ATATTAATATACATATGTACATATATATATATATAT [XGTACX_site7425] | 11.2 ± 0.62 |
| TAAATTATTTATAAAGCACACAAGAAAAAATAAAAT [CACACA_site2132] | 10.2 ± 0.092 |
| AAAATTTAATATAATGCACACATAAAAAAAAATTCA [CACACA_site8640] | 10 ± 0.3 |
| TCCTGCCTCTCTTTGGTGCGTTGTAACCCTCGAGGA | 10.04 ± 0.057 |
| CCAATACTGTTTAAATGTACAAGTAGGAGGTTAATT [XGTACX_site7260] | 10.8 ± 0.41 |
| AAAAATTAACAAAAGGTGCAAACAAATAGTGGTTTT [GTGCAC_site9998] | 9.98 ± 0.085 |

| Sequence | gcPBM binding intensity (ln) |
| --- | --- |
| TAAAGGCAAACAAACACACACACATATATACATATA [CACACA_site2123] | 10.1 ± 0.19 |
| GTTATTCTTAATTTTTGTACACATTTTTATATTATT [XGTACX_site7227] | 11.4 ± 0.7 |
| AAAAAAGTAAAAAGTGCATGTAAAATATAAGTATCT [TGCATGCA_site55] | 10.5 ± 0.23 |
| TTTTTTTTTTATTTTGCACACTTCTAATTTAGTTGT [CACACA_site3429] | 10.2 ± 0.21 |
| ATATATATGTATATGTGTACTTATATTTGTCATTTT [XGTACX_site1317] | 11.4 ± 0.95 |
| AAAAAAATTAAACACACACACACATATATATATATA [CACACA_site4718] | 10 ± 0.49 |
| GAACAAAAGGAATGTTGTACATAAAAAATGAAAAAT [XGTACX_site3929] | 11.3 ± 0.66 |
| AATAAATATATAAATACACACAAACATACAGATATA [CACACA_site6088] | 10.11 ± 0.014 |
| TTTAAAAGATAAAGACTGCACTTTAAGCACACAAAT [GTGCAC_site9752] | 10.5 ± 0.38 |
| AATTCCTATAATGAGAGTACGCATTAGAACAGTAGG [XGTACX_site5721] | 11.3 ± 1 |
| AAATTGTAGAAGCGTATTTCTCGAACTGGATGAATA [CACACA_negctrl_site1373] | 10.095 ± 0.007 |
| AATTAATGGAAACAAGTCAAATGATCTTTATGCATA [TGCATGCA_negctrl_site540] | 9.76 ± 0.2 |
| AGTTTCCTTGAGAAAAGTACGTAATACTACATATAT [XGTACX_site818] | 11.2 ± 0.66 |
| ATATGATATATTTTATGTACATATAAAACATATATA [XGTACX_site4297] | 11.3 ± 0.73 |
| TTATACTTTTTTTCTTGGTGTAGAAAAAAAAGTTAG [CACACA_negctrl_site1207] | 10.3 ± 0.28 |
| TTTATATTAGGTCTTGAACGATTTTCATCATTATTA [TGCATGCA_negctrl_site100] | 9.97 ± 0.15 |
| AAAAAAGAAACAAACACACATACATACAAACAAACA [CACACA_site142] | 10.3 ± 0.28 |
| TTTATATCGACTCTTCTTTATATAAGTTGTGATGTT [TGCATGCA_negctrl_site362] | 9.94 ± 0.042 |
| TAAAGTGTAAAGAAGGTGCTCATTATTTATTTTTTT | 9.71 ± 0.13 |
| AAAAACGAAAAAAATACACACCTGAAAAGATATGTA [CACACA_site4644] | 9.72 ± 0.16 |
| GTATATATGTATATGTGTACATATATTTTATAATAT [XGTACX_site5703] | 11.3 ± 0.79 |
| AAAAACCATTCGCACACACACATAATCTATAATATA [CACACA_site6782] | 10.2 ± 0.18 |
| AAGTACCATATAGGCACACATATATATATATATATA [CACACA_site3282] | 10.3 ± 0.17 |

| Sequence | gcPBM binding intensity (ln) |
| --- | --- |
| AGATCATAATATTATACACACATTATATATATGTAA [CACACA_site8419] | 10.015 ± 0.007 |
| TGGAAAGTTATTAACACACACATATAAATATTTATA [CACACA_site6173] | 9.84 ± 0.099 |
| GGAATAACCAGACACACACACACATATATATATATA [CACACA_site3541] | 10.2 ± 0.31 |
| TATATATAATATTATACACACATATCTGCATAATAT [CACACA_site4202] | 9.99 ± 0.042 |
| TCCAATTCTTTATTTTGTACACATTATGTGCATATG [XGTACX_site6290] | 11.3 ± 0.54 |
| AAAAAAAAAAAAAAAACACACATTTATAGTATATAT [CACACA_site1194] | 10.2 ± 0.23 |
| GATTTATTTCATATCACACATTTTGGCTATTTTGTG [CACACA_site5793] | 10.2 ± 0.078 |
| CCATTTGGTATTATATGTACATATAATTTTTTTTTT [XGTACX_site157] | 11.2 ± 0.62 |
| AATCCTTCATATGTAGTGCATATTAACAAAATAAAA [GTGCAC_site9500] | 10.3 ± 0.36 |
| ATGAAATATTTATTTGTGCACTTAATTTGTTGGAAA | 10.4 ± 0.34 |
| GTTGTTATATAAAGGAGTACATAATAACACAAATAT [XGTACX_site615] | 11.7 ± 1.2 |
| TTTTCTTGTAGTATAACAAAATATAGTAATATATAT [GTGCAC_negctrl_site609] | 9.96 ± 0.15 |
| TAGGAGAAAAAAAAAAGTACCCACAACTATTATACT [XGTACX_site8195] | 11.3 ± 0.73 |
| TGGTAATATCGATTCACACATATCAAAATAAAAAAA [CACACA_site4196] | 9.96 ± 0.071 |
| AACATATTAATGTACACACACCCACGCACAAACAAA [CACACA_site7320] | 11.5 ± 0.91 |
| GCTATAAATACAGACGCACACATATACATACAGATA [CACACA_site5778] | 10.3 ± 0.32 |
| TGTTATTAGAAAAATGCACACCAAAAAAAAAAAAAA [CACACA_site8802] | 10.1 ± 0.52 |
| ATATACATAATATATAATATAAATATATATATGGAA [CACACA_negctrl_site906] | 9.37 ± 0.16 |
| TATTAAAATATTTATACACACATAATTTTGATAAAT [CACACA_site4486] | 9.87 |
| TGTCATTCCTCTTATTGTACAAAAATATTATAATAT [XGTACX_site1134] | 10.9 ± 0.56 |
| TAATTAATTTACATTTTAATTTTATACAAAATTTAT [CACACA_negctrl_site830] | 9.745 ± 0.035 |
| ACATATTTATATTCTACACACTTATACTATAATACA [CACACA_site7204] | 9.97 ± 0.057 |
| GTTATACGCATCAACACACACATACAACGTGGTGTA [CACACA_site1188] | 10 ± 0.17 |

| Sequence | gcPBM binding intensity (ln) |
| --- | --- |
| ATGGAACTTAAAAATTGTACACATAAAATGGAGAAG [XGTACX_site1823] | 11.5 ± 0.91 |
| TTATAAGATTTATGTACACACATATACACAGCTCTA [CACACA_site6481] | 11.5 ± 0.93 |
| TCCTAATGCTACCACACACACAAAAACAAATAATAA [CACACA_site2610] | 10.5 ± 0.57 |
| TAAATGAAAATATGTACACACTTGAAAACTTTTATG [CACACA_site7388] | 11.4 ± 0.73 |
| TGCAACAAAATAAACACACACACACTAGCACAAAAA [CACACA_site5805] | 10.2 ± 0.23 |
| TTTTTTTTTTTAGACACATGCATTTTTATAATTTTC [TGCATGCA_site843] | 9.675 ± 0.078 |
| AATATATATATTAAATGTACATTACATAATTATATA [XGTACX_site3450] | 10.9 ± 0.34 |
| ATATGTATGTATGTCTCAAAATTTCATATTATATTA [CACACA_negctrl_site784] | 9.82 ± 0.085 |
| TAGGATATTGAATAATGTACTTTATATATAATATAA [XGTACX_site7828] | 11 ± 0.73 |
| AAGAAATAAAAAAAACGTACATATATACATACATAC [XGTACX_site3980] | 11.4 ± 0.93 |
| TATATATATTAACTTGTGCGCAAAAAGATATAATTT [GTGCAC_site9672] | 10.4 ± 0.23 |
| AATATTTTGATGTGTACACATTAATACAGTTTTACA [CACACA_site5711] | 11.7 ± 0.91 |
| AAAAAAAAAAAAATACGTACACAAAAAATTGCAAAG [XGTACX_site5663] | 11.6 ± 0.81 |
| AATATATTAAAAAAGCGTACAAGAATTGGAAAATGG [XGTACX_site6576] | 11.5 ± 0.85 |
| GATATTTTTATTTGTTGTACTTAAGATAATAAATGA [XGTACX_site2891] | 11.3 ± 0.79 |
| TGTATAACCTGTGTTACACACATTAAAATTTATATA [CACACA_site4449] | 9.91 ± 0.13 |
| ATAAATGTGTTTATTTAACACACAAAAGAAAAAATA [CACACA_site8589] | 10.06 ± 0.064 |
| AAAGGAAAAAAAGTAGCACACAAATATTTATAATAT [CACACA_site8772] | 10.3 ± 0.13 |
| GTATCAAAAGAATACACACACACATACCTATAAATA [CACACA_site7737] | 10.2 ± 0.2 |
| TAAATAAAAAAAAATACACACATCTATATAAAATAT [CACACA_site3774] | 9.7 ± 0.24 |
